According to the supplement of paper PMC4967469:
IC50 is the fitted dose that halves viability relative to control wells, and lower means more sensitive; a fit beyond the top or the lowest dose is shown as a bound at that dose. AUC sums up the same curve from the lowest dose to the 256-fold higher top dose; it is 1 without any effect and falls as sensitivity rises. For some assays here: Any top dose called inferred was derived from the fitted curves, not read from the paper.

Key:
Test in all cases: Viability of human cancer cell lines after 72 h of drug (GDSC screen)
[1] = compound: O=c1cc(N2CCOCC2)oc2c(-c3cccc4c3sc3ccccc34)cccc12 [NU-7441]; details: top dose 2 µM; top dose inferred
Procedure: (§1)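 Human cancer cell lines in 384-well plates, medium with 10% serum, drug for 72 h over a 256-fold dose range (nine 2-fold or five 4-fold steps up to the top dose). Adherent lines were fixed and stained with the nucleic acid dye Syto60, suspension lines read with resazurin; signal relative to control wells, capped at 0 and 100%. One two-parameter sigmoid per drug and line, fitted in a mixed model over all curves with the slope shared within a line.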

[2] = compound: COc1cc2ncnc(Nc3cc(Br)c(O)c(Br)c3)c2cc1OC [WHI-P97]; details: top dose 10.24 µM; top dose inferred
Procedure: as §1

[3] = compound: N[C@@H](CSC(c1ccccc1)(c1ccccc1)c1ccccc1)C(=O)O [S-Trityl-L-cysteine]; details: top dose 5.12 µM; top dose inferred
Procedure: as §1

[4] = compound: CCC1=C[C@@H]2CN(C1)Cc1c([nH]c3ccccc13)[C@@](C(=O)OC)(c1cc3c(cc1OC)N(C)[C@H]1[C@@](O)(C(=O)OC)[C@H](OC(C)=O)[C@]4(CC)C=CCN5CC[C@]31[C@@H]54)C2 [Vinorelbine]; details: top dose 0.064 µM; top dose inferred
Procedure: as §1

[5] = compound: COc1cc2nccc(Oc3ccc(NC(=O)C4(C(=O)Nc5ccc(F)cc5)CC4)cc3)c2cc1OC [XL-184]; details: top dose 5.12 µM; top dose inferred
Procedure: as §1

[6] = compound: O=c1cc(CN2CCOCC2)occ1OCCCCCSc1ccnc2cc(C(F)(F)F)ccc12 [EHT 1864]; details: top dose 10 µM; top dose inferred
Procedure: as §1

[7] = compound: COc1cc2ncnc(Nc3ccc(F)c(Cl)c3)c2cc1OCCCN1CCOCC1 [Gefitinib]; details: top dose 0.5 µM
Procedure: as §1

[8] = compound: N=C(N)NC(=N)NCCc1ccccc1 [Phenformin]; details: top dose 4000 µM; top dose inferred
Procedure: as §1

[9] = compound: C=CC(=O)Nc1cc(NC(=O)c2ccc(C)c(NC(=O)c3ccno3)c2)cc(C(F)(F)F)c1 [QL-XI-92]; details: top dose 10.24 µM; top dose inferred
Procedure: as §1

[10] = compound: CNCc1ccc(-c2[nH]c3cc(F)cc4c3c2CCNC4=O)cc1 [AG-014699]; details: top dose 5 µM; top dose inferred
Procedure: as §1

[11] = compound: C#Cc1cccc(Nc2ncnc3cc(OCCOC)c(OCCOC)cc23)c1 [Erlotinib]; details: top dose 2 µM
Procedure: as §1

| Cell Line | AUC [1] | IC50 [1] [µM] | AUC [2] | IC50 [2] [µM] | AUC [3] | IC50 [3] [µM] | AUC [4] | IC50 [4] [µM] | AUC [5] | IC50 [5] [µM] | AUC [6] | IC50 [6] [µM] | AUC [7] | IC50 [7] [µM] | AUC [8] | IC50 [8] [µM] | AUC [9] | IC50 [9] [µM] | AUC [10] | IC50 [10] [µM] | AUC [11] | IC50 [11] [µM] |
| --- | --- | --- | --- | --- | --- | --- | --- | --- | --- | --- | --- | --- | --- | --- | --- | --- | --- | --- | --- | --- | --- | --- |
| 8-MG-BA (glioma, adherent) | 0.949 | > 2 | 0.969 | > 10.2 | 0.912 | > 5.12 | 0.373 | 0.00183 | 0.937 | > 5.12 | 0.94 | > 10 | 0.964 | > 0.5 | 0.695 | 849 | 0.864 | 8.02 | 0.874 | 4.34 | 0.98 | > 2 |
| A388 (skin, adherent) | 0.962 | > 2 | 0.926 | > 10.2 | 0.635 | 0.799 | 0.506 | 0.00417 | 0.941 | > 5.12 | 0.978 | > 10 | 0.857 | > 0.5 | 0.955 | > 4000 | 0.928 | > 10.2 | 0.976 | > 5 | 0.775 | 0.91 |
| AMO-1 (haematopoietic neoplasm, suspension) | 0.991 | > 2 | 0.966 | > 10.2 | 0.652 | 0.791 | 0.601 | 0.00727 | 0.957 | > 5.12 | 0.981 | > 10 | 0.989 | > 0.5 | 0.512 | 269 | 0.968 | > 10.2 | 0.991 | > 5 | 0.991 | > 2 |
| BB30-HNC (head and neck, adherent) | 0.937 | > 2 | 0.882 | > 10.2 | 0.629 | 0.719 | 0.281 | 0.000976 | 0.873 | 4.72 | 0.954 | > 10 | 0.81 | 0.256 | 0.532 | 304 | 0.961 | > 10.2 | 0.948 | > 5 | 0.535 | 0.155 |
| BC-1 (B-cell lymphoma, suspension) | 0.982 | > 2 | 0.971 | > 10.2 | 0.887 | 4.24 | 0.641 | 0.00917 | 0.931 | > 5.12 | 0.913 | > 10 | 0.976 | > 0.5 | 0.61 | 476 | 0.897 | 9.36 | 0.985 | > 5 | 0.991 | > 2 |
| BE2-M17 (neuroblastoma, adherent) | 0.967 | > 2 | 0.982 | > 10.2 | 0.784 | 2.24 | 0.875 | > 0.064 | 0.985 | > 5.12 | 0.969 | > 10 | 0.948 | > 0.5 | 0.888 | > 4000 | 0.987 | > 10.2 | 0.987 | > 5 | 0.96 | > 2 |
| BL-41 (Burkitt lymphoma, suspension) | 0.984 | > 2 | 0.955 | > 10.2 | 0.644 | 0.722 | 0.442 | 0.00288 | 0.853 | 2.62 | 0.986 | > 10 | 0.992 | > 0.5 | 0.647 | 575 | 0.619 | 1.25 | 0.994 | > 5 | 0.964 | > 2 |
| BV-173 (chronic myeloid leukaemia, suspension) | 0.893 | 1.88 | 0.946 | > 10.2 | 0.56 | 0.456 | 0.599 | 0.00721 | 0.737 | 1.37 | 0.894 | 9.49 | 0.95 | > 0.5 | 0.91 | > 4000 | 0.61 | 1.24 | 0.858 | 3.36 | 0.95 | > 2 |
| CESS (acute myeloid leukaemia, suspension) | 0.984 | > 2 | 0.935 | > 10.2 | 0.6 | 0.577 | 0.561 | 0.00571 | 0.962 | > 5.12 | 0.986 | > 10 | 0.986 | > 0.5 | 0.464 | 203 | 0.809 | 4.44 | 0.99 | > 5 | 0.991 | > 2 |
| CL-11 (large intestine, adherent) | 0.896 | > 2 | 0.987 | > 10.2 | 0.971 | > 5.12 | 0.981 | > 0.064 | 0.987 | > 5.12 | 0.985 | > 10 | 0.985 | > 0.5 | 0.954 | > 4000 | 0.98 | > 10.2 | 0.962 | > 5 | 0.987 | > 2 |
| CMK (acute myeloid leukaemia, suspension) | 0.978 | > 2 | 0.94 | > 10.2 | 0.653 | 0.791 | 0.71 | 0.014 | 0.96 | > 5.12 | 0.933 | > 10 | 0.974 | > 0.5 | 0.382 | 125 | 0.854 | 6.2 | 0.984 | > 5 | 0.991 | > 2 |
| COLO-668 (small cell lung carcinoma, adherent) | 0.986 | > 2 | 0.989 | > 10.2 | 0.928 | > 5.12 | 0.802 | 0.0313 | 0.927 | > 5.12 | 0.951 | > 10 | 0.958 | > 0.5 | 0.682 | 808 | 0.935 | > 10.2 | 0.989 | > 5 | 0.949 | > 2 |
| COLO-824 (breast, adherent) | 0.988 | > 2 | 0.983 | > 10.2 | 0.973 | > 5.12 | 0.805 | 0.0332 | 0.918 | > 5.12 | 0.965 | > 10 | 0.985 | > 0.5 | 0.843 | 2910 | 0.975 | > 10.2 |  |  | 0.987 | > 2 |
| COR-L88 (small cell lung carcinoma, adherent) | 0.984 | > 2 | 0.974 | > 10.2 | 0.862 | > 5.12 | 0.778 | 0.031 | 0.965 | > 5.12 | 0.938 | > 10 | 0.963 | > 0.5 | 0.831 | 3210 | 0.972 | > 10.2 | 0.977 | > 5 | 0.98 | > 2 |
| CTV-1 (acute myeloid leukaemia, suspension) | 0.97 | > 2 | 0.971 | > 10.2 | 0.567 | 0.469 | 0.406 | 0.00233 | 0.825 | 2.3 | 0.981 | > 10 | 0.965 | > 0.5 | 0.432 | 169 | 0.883 | 7.28 | 0.958 | > 5 | 0.992 | > 2 |
| EW-24 (Ewing sarcoma, semi-adherent) | 0.988 | > 2 | 0.663 | 1.71 | 0.932 | > 5.12 | 0.949 | > 0.064 | 0.989 | > 5.12 | 0.903 | > 10 | 0.979 | > 0.5 |  |  | 0.993 | > 10.2 | 0.992 | > 5 | 0.71 | 0.449 |
| KP-N-YN (neuroblastoma, adherent) | 0.959 | > 2 | 0.951 | > 10.2 | 0.875 | > 5.12 | 0.79 | 0.0314 | 0.987 | > 5.12 |  |  | 0.959 | > 0.5 | 0.987 | > 4000 | 0.982 | > 10.2 |  |  | 0.843 | 1.63 |
| L-363 (myeloma, suspension) | 0.94 | > 2 | 0.98 | > 10.2 | 0.634 | 0.711 | 0.645 | 0.00949 | 0.976 | > 5.12 | 0.923 | > 10 | 0.98 | > 0.5 |  |  | 0.919 | > 10.2 | 0.971 | > 5 | 0.991 | > 2 |
| LP-1 (myeloma, suspension) | 0.993 | > 2 | 0.971 | > 10.2 | 0.851 | 2.93 | 0.957 | > 0.064 | 0.929 | > 5.12 | 0.919 | > 10 | 0.989 | > 0.5 |  |  | 0.947 | > 10.2 | 0.983 | > 5 | 0.99 | > 2 |
| MOLP-8 (myeloma, suspension) | 0.96 | > 2 | 0.976 | > 10.2 | 0.583 | 0.536 | 0.568 | 0.00609 | 0.882 | 5.05 | 0.981 | > 10 | 0.977 | > 0.5 |  |  | 0.728 | 2.76 | 0.987 | > 5 | 0.987 | > 2 |
| NU-DUL-1 (B-cell lymphoma, suspension) | 0.914 | 1.93 | 0.975 | > 10.2 | 0.603 | 0.579 | 0.504 | 0.00409 | 0.856 | 2.9 |  |  | 0.993 | > 0.5 | 0.42 | 158 | 0.839 | 5.12 | 0.985 | > 5 | 0.993 | > 2 |
| OCI-AML3 (acute myeloid leukaemia, suspension) | 0.979 | > 2 | 0.982 | > 10.2 | 0.583 | 0.522 | 0.604 | 0.00738 |  |  | 0.971 | > 10 | 0.989 | > 0.5 | 0.757 | 1210 | 0.838 | 5.55 | 0.968 | > 5 | 0.991 | > 2 |
| SK-PN-DW (Ewing sarcoma, adherent) | 0.976 | > 2 | 0.946 | > 10.2 | 0.756 | 1.81 | 0.627 | 0.00906 | 0.714 | 1.32 | 0.964 | > 10 | 0.912 | > 0.5 | 0.826 | 2560 | 0.974 | > 10.2 |  |  | 0.964 | > 2 |
| no-11 (glioma, adherent) | 0.98 | > 2 | 0.98 | > 10.2 | 0.826 | 4.2 | 0.861 | > 0.064 | 0.893 | > 5.12 |  |  | 0.968 | > 0.5 | 0.8 | 2520 | 0.885 | > 10.2 | 0.938 | > 5 | 0.922 | > 2 |
